# PubChem BioAssay AID1745853 (National Center for Advancing Translational Sciences (NCATS), 2022)
# Where “and” joins values, the source holds several entries; their conditions need not be identical. Equal values may be shown once. The list shows a part of the results. These are further read-outs of the screen, such as a control signal, another cell line or another target. No call is given for them.
# Tests used:
# Assay in all cases: Primary Screen for Target Class Profiling of Small Molecule Inhibitors of Methyltransferases
# [1] = target: Glycine N-methyltransferase (Homo sapiens) (UniProt Q14749); settings: purified enzyme, MTase-Glo SAH luminescence; measured here: GNMT inhibition; at 40 µM; stronger effect = lower value
# Summary of the method: (§1)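 Each enzyme was assayed with SAM and its substrate. SAH formation detected by MTase-Glo luminescence; single-point 40 uM screen[…].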
# [2] = target: Guanidinoacetate N-methyltransferase (Homo sapiens) (UniProt Q14353); settings: purified enzyme, MTase-Glo SAH luminescence; measured here: GAMT inhibition; at 40 µM; stronger effect = lower value
# Summary of the method: as §1
# [3] = target: Histamine N-methyltransferase (Homo sapiens) (UniProt P50135); settings: purified enzyme, MTase-Glo SAH luminescence; measured here: HNMT inhibition; at 40 µM; stronger effect = lower value
# Summary of the method: as §1
# [4] = target: Nicotinamide N-methyltransferase (Homo sapiens) (UniProt P40261); settings: purified enzyme, MTase-Glo SAH luminescence; measured here: NNMT inhibition; at 40 µM; stronger effect = lower value
# Summary of the method: as §1
# [5] = target: Phenylethanolamine N-methyltransferase (Homo sapiens) (UniProt P11086); settings: purified enzyme, MTase-Glo SAH luminescence; measured here: PNMT inhibition; at 40 µM; stronger effect = lower value
# Summary of the method: as §1
# On the % scale 0 is the no-effect control and ±100 the full control effect.
SMILES,"activity change, negative = inhibition [1]","activity change, negative = inhibition [2]","activity change, negative = inhibition [3]","activity change, negative = inhibition [4]","activity change, negative = inhibition [5]"
CCC1CN(C(=O)c2ccc(NCc3cnn(CC)c3)nc2)CCN1C(C)C (configuration not stated),-3.11%,-3.32%,-11.3%,1.24%,-3.3%
CN(C)CCCn1cc(C2=C(c3c[nH]c4ccccc34)C(=O)NC2=O)c2ccccc21,-48.9%,-25.4%,-74.5%,-49.1%,-46.2%
Cc1ccc2c(c1)c(-n1cccc1)c1n2CC(C)(C(=O)NCCC(C)C)N(Cc2ccco2)C1=O (configuration not stated),-11.6%,-0.372%,-2.44%,-7.81%,-6.11%
CNC(C)C(=O)NC(C(=O)N1CCCC1c1nc(C(=O)c2ccc(F)cc2)cs1)C1CCCCC1 (configuration not stated),-6.25%,,3.52%,,
Cc1ccc(NC(=O)Cn2nc3n(C)c(=O)c4ccc(C(=O)NC5CCCC5)cc4n3c2=O)cc1,8.62%,0%,5.91%,1.34%,5.91%
CC(C)CNC(=O)c1nc(-c2ccc(Cl)cc2)c2cnccn12,-14.1%,-11.1%,-14%,-33.4%,-6.61%
CC1(C(=O)NC2CCCCCCC2)Cn2c(cc3occc32)C(=O)N1Cc1ccccn1 (configuration not stated),3.64%,-1.95%,8.89%,-9.3%,0.675%
CC(C)CCNC(=O)C1(C)Cn2c(cc3ccccc32)C(=O)N1Cc1ccccc1 (configuration not stated),2.52%,0%,5.25%,3.53%,-0.514%
CN1C(=O)c2cc(C(=O)NCc3ccc4c(c3)OCO4)nn2CC1(C)C(=O)NCc1ccccc1 (configuration not stated),4.16%,0%,1.1%,2.64%,0.907%
COc1c(C)cc(NC(=O)c2nn(Cc3ccc(F)cc3)c3c2CN(C(=O)c2ccc[nH]2)C[C@]3(C)C(N)=O)cc1C,-2.22%,6.02%,6.33%,-7.95%,2.86%
CCCN1C(=O)c2cc(C(=O)NCc3ccc(N(C)C)cc3)nn2CC1(C)C(=O)NC1CCCC1 (configuration not stated),-0.206%,1.53%,1.57%,0.137%,-1.51%
CN(CCCN1C(=O)c2ccc(-c3ccco3)n2CC1(C)C(=O)NC1CCCCC1)C1CCCCC1 (configuration not stated),2.18%,0%,2.92%,5.6%,-0.065%
CCOc1ccc(CN2C(=O)c3ccc(-c4ccco4)n3CC2(C)C(=O)NC2CCCC2)cc1 (configuration not stated),-7.65%,4.53%,-1.6%,0.588%,-3.37%
CCCN1C(=O)c2cc(C(=O)N3CCN(Cc4ccccc4)CC3)nn2CC1(C)C(=O)NC1CCCC1 (configuration not stated),2.36%,3.07%,10.3%,6.51%,3.69%
CC(=O)O[C@H]1[C@H](O[C@H]2[C@@H]3C=CO[C@@H](O[C@@H]4O[C@H](CO)[C@@H](O)[C@H](O)[C@H]4O)[C@@H]3[C@@]3(CO)O[C@@H]23)O[C@@H](C)[C@H](OC(=O)/C=C/c2ccccc2)[C@H]1OC(=O)/C=C/c1ccccc1,3%,13.2%,-0.652%,-0.874%,4.63%
COc1ccccc1N1CCN(CCCNc2cc(=O)n(C)c(=O)n2C)CC1,5.64% and -1.75%,6.81% and 3.34%,9.28% and 0.271%,-11.5% and -11.8%,6.37% and 4.69%
CCN1C(=O)CCc2cc(NC(=O)c3ccc(F)cc3)ccc21,-9.43%,-14.7%,-10.5%,-17.9%,-35.4%
Cn1c(CO)c(-c2ccccc2)c2cc([N+](=O)[O-])ccc21,-8.84%,-3.38%,-15.9%,-31.5%,-8.85%
O=C(CCc1nnc2n(CCc3ccccc3)c(=O)c3ccccc3n12)N1CCN(c2ccc(F)cc2)CC1,-3.72%,1.05%,5.84%,-26%,0.589%
CN(C)[C@H]1CCN(C(=O)Cc2cn(C)c3ccccc23)C[C@H]1CCC(=O)O,-0.218%,0.187%,2.6%,-3.29%,-4.42%

SMILES,"activity change, negative = inhibition [1]","activity change, negative = inhibition [2]","activity change, negative = inhibition [3]","activity change, negative = inhibition [4]","activity change, negative = inhibition [5]"
COC(=O)c1ncn2c1C(=O)N(Cc1cccc(OC)c1)C(C)(C(=O)NCc1ccccc1)C2 (configuration not stated),-5.47%,3.35%,1.55%,-1.79%,-2.75%
CCN(CC)CCN1C(=O)c2ccc(-c3ccco3)n2CC1(C)C(=O)NC1CCC(C)CC1 (configuration not stated),5.38%,0.592%,3.58%,3.96%,0.754%
COc1ccc(CNC(=O)Cn2nc3n(CC(C)C)c(=O)c4ccccc4n3c2=O)cc1,-4.8%,5.33%,-0.857%,-13%,-9.08%
CC1(C(=O)NC2CCCC2)Cn2c(cc3ccccc32)C(=O)N1Cc1ccccc1F (configuration not stated),-3.92%,1.45%,-2.59%,-17.7%,-2.49%
C=C(CCC1=C(C)[C@H]2[C@H](CC3[C@@H]4CC=C5C[C@@H](O)C[C@@H](O)[C@]5(C)C4[C@H](O)C[C@@]32C)O1)CO[C@@H]1O[C@H](CO)[C@@H](O)[C@H](O)[C@H]1O (some centres not stated),2.67%,7.59%,11.3%,-4.29%,8.62%
CCc1ccc(CNC(=O)Cn2ccc3cc(S(=O)(=O)N4CCCCC4)ccc32)cc1,-2.02%,3.83%,0.255%,-0.594%,-1.1%
CC(C)CNC(=O)c1ccc2c(=O)n(C(C)C)c3nn(Cc4c(F)cccc4Cl)c(=O)n3c2c1,7.19%,0%,8.55%,7.8%,5.13%
CC(=O)Nc1cccc(-c2csc(Nc3cc(C)ccn3)n2)c1,-6.57%,2.69%,-4.24%,-17.4%,-8.71%
C1Cc2[nH]nc(-c3nn[nH]n3)c2C1,5.86%,2.01%,11.2%,-12.6%,2.06%
CC1CCCCC1NC(=O)C1(C)Cn2c(cc3sccc32)C(=O)N1Cc1ccc(F)cc1 (configuration not stated),3.98%,-17.1%,5.71%,-6.74%,-0.728%
CC(C)CNC(=O)c1ccc2c(=O)n(CC(C)C)c3n[nH]c(=O)n3c2c1,-7.82%,0%,6.26%,1.56%,-6.81%
Cc1ccc(CNC(=O)c2cc3n(n2)CC(C)(C(=O)NCc2ccc(C)cc2)N(C)C3=O)cc1 (configuration not stated),8.76%,0%,7.46%,13.6%,7.53%
COc1ccc(C(=O)N2CCN(c3nnc4ccccn34)CC2)cc1OC,-6.67%,1.24%,0.256%,-2.86%,-0.199%
CCOC(=O)c1cc2n(n1)CC(C)(C(=O)NCc1ccccc1)N(c1ccc3c(c1)OCO3)C2=O (configuration not stated),-5.19%,1.21%,-3.42%,-7.99%,-7.41%
Cc1nccn1CCC(NC(=O)c1cn(CCN)nn1)c1ccccc1 (configuration not stated),-7.25%,-9.12%,-31.3%,-8.05%,-11%
Oc1cc2c(c(Cl)c1O)CCNCC2c1ccccc1 (configuration not stated),-40.6%,4.37%,-45.3%,-10.6%,-1.28%
CCc1ccc(N2C(=O)c3cc4sccc4n3CC2(C)C(=O)NC2CCC(C)CC2)cc1 (configuration not stated),3.83%,1.81%,5.52%,3.25%,-6.17%
Cc1cc(C)nc(SCC(=O)Nc2ncc(Cc3cccc4ccccc34)s2)n1,1.38%,-4.85%,10.6%,-26.6%,-2.63%
COC(=O)c1cc(COc2ccc3c(-c4ccccc4)cc(=O)oc3c2)c(C)o1,-2.84%,1.61%,2.46%,-1.39%,-5.9%
CC(=O)c1ccc(NC(=O)N[C@H]2CCN3C(=O)[C@@H](Cc4ccccc4)NC(=O)[C@H]23)cc1,-8.12%,-10.3%,-7.34%,-18.9%,-5.55%

SMILES,"activity change, negative = inhibition [1]","activity change, negative = inhibition [2]","activity change, negative = inhibition [3]","activity change, negative = inhibition [4]","activity change, negative = inhibition [5]"
c1ccc(Cc2ncc3c(n2)CCNCC3)cc1,0.988%,-0.181%,-0.16%,-12.9%,-0.983%
CCOC(=O)C(Cc1cccc(N2CCN(C(=O)OC(C)(C)C)CC2)c1)OC (configuration not stated),-7.25%,-7.11%,-3.48%,-18.6%,-26.1%
CCOc1ccc(N(C(=O)c2ccc(OC)cc2)S(=O)(=O)c2ccc3c(c2)n(C)c(=O)n3C)cc1,-4.94%,-29.8%,8.45%,-19.2%,1.39%
COc1ccc(OC)c(S(=O)(=O)N2CCCCC2c2nc(-c3cccnc3)n[nH]2)c1 (configuration not stated),5.62%,1.95%,1.3%,1.13%,-4.58%
CC1(C)CCCC2(C)c3c4c(c(=O)oc(=O)c3=CCC12)=CCC1C(C)(C)CCCC41C (configuration not stated),4.75%,5.82%,12.3%,-10.7%,7.2%
Cc1cc2c(cc3n2CC(C)(C(=O)NC2CCCCCCC2)N(Cc2cccc(Cl)c2)C3=O)o1 (configuration not stated),-7.39%,0.75%,-7.76%,-12.5%,-7.68%
CC(C)Cc1nnc(NC(=O)C[C@H]2NC(=O)c3ccccc3NC2=O)s1,-27.5%,-8.08%,-2.15%,-14%,-1.57%
COCC(=O)O[C@]1(CCN(C)CCCc2nc3ccccc3[nH]2)CCc2cc(F)ccc2[C@@H]1C(C)C,1.95%,14.7%,-0.753%,-8.31%,3.05%
O=C1C(N2CCN(Cc3ccc[nH]3)CC2)CCN1CCc1ccccc1 (configuration not stated),-10.8%,-3.86%,-2.31%,-0.168%,-8.21%
CC(=O)Nc1cccc(-c2ccnc(-c3nnc(C)n3Cc3ccccc3)c2)c1,-9.11%,-1.72%,-9.87%,-16.5%,-0.891%
CN1C(=O)c2cc(C(=O)NCc3cccs3)nn2CC1(C)C(=O)NC1CCCCC1 (configuration not stated),6.6%,0%,3.72%,4.75%,2.65%
C/C(=C\C(=O)C[C@@]12C(=O)O[C@]3(C)CC[C@H]1C[C@H]23)C(N)=O,1.99%,5.63%,8.31%,-6.77%,2.06%
O=S(=O)(c1ccccc1)c1nnn2c1nc(N1CCOCC1)c1ccccc12,2.63%,0%,6.14%,5.97%,1.59%
O=C(c1ccccc1)N1CC2(CCNC2)OCc2ccccc21 (configuration not stated),-2.17%,-4.7%,-4.19%,-2.17%,-3.41%
CC(CNc1nc2c(S(=O)(=O)c3ccccc3)nnn2c2ccccc12)c1ccccc1 (configuration not stated),-0.474%,0%,4.95%,0.47%,1.18%
O=S(=O)(NCC1(COc2cnccn2)C[C@@H](O)[C@@H](O)C1)c1ccc(F)cc1 (some centres not stated),-7.22%,-6.38%,-26.5%,-24%,-5.02%
Cc1ccc(N2C(=O)c3cc4occc4n3CC2(C)C(=O)NC2CCCCCC2)cc1C (configuration not stated),-2.89%,0%,6.28%,-4.7%,-1.17%
CC(=O)NC[C@H]1OC[C@@H](NCC(C)(C)C)[C@@H]1O,-1.54%,-2.83%,-1.88%,-2.87%,-4.53%
